Biological target: T1, IscS (E. coli desulfurase), wild type (E. coli), P0A6B7
T1 chain: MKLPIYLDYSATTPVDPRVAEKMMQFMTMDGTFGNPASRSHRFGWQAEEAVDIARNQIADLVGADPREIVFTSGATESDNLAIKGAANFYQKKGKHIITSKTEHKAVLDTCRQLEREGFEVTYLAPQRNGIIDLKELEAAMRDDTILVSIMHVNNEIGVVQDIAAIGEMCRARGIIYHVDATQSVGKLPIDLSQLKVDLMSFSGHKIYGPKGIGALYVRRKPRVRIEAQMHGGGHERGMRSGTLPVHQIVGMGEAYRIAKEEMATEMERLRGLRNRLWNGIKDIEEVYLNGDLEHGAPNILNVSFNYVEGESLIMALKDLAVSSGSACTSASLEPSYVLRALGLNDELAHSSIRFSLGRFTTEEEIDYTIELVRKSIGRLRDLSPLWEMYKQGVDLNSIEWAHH
Assay: SAXS; solutions of 2.5-5.0 mg/ml at 10 °C; IscS alone and holo-Fdx·IscS complex
Details: remark: other sources report otherwise

stoichiometry N: 2
B1: IscS (E. coli desulfurase), wild type, P0A6B7 1-404 (enzyme)
chain: MKLPIYLDYSATTPVDPRVAEKMMQFMTMDGTFGNPASRSHRFGWQAEEAVDIARNQIADLVGADPREIVFTSGATESDNLAIKGAANFYQKKGKHIITSKTEHKAVLDTCRQLEREGFEVTYLAPQRNGIIDLKELEAAMRDDTILVSIMHVNNEIGVVQDIAAIGEMCRARGIIYHVDATQSVGKLPIDLSQLKVDLMSFSGHKIYGPKGIGALYVRRKPRVRIEAQMHGGGHERGMRSGTLPVHQIVGMGEAYRIAKEEMATEMERLRGLRNRLWNGIKDIEEVYLNGDLEHGAPNILNVSFNYVEGESLIMALKDLAVSSGSACTSASLEPSYVLRALGLNDELAHSSIRFSLGRFTTEEEIDYTIELVRKSIGRLRDLSPLWEMYKQGVDLNSIEWAHH

From paper PMC3750173
